Test results as given in paper PMC4336329 (PLoS ONE, 2015).
The campaign covered roughly 310,000 compounds. About 2,200 (0.71%) showed an effect of 50% or more. The effect is printed as a negative number. The list shows a part of the results.

The compounds below were run against human ether-à-go-go-related gene (hERG) potassium channel (human, UniProt Q12809) (assay: primary screen, population patch clamp on CHO cells stably expressing hERG).
human ether-à-go-go-related gene (hERG) potassium channel, sequence (Q12809 whole entry, looked up): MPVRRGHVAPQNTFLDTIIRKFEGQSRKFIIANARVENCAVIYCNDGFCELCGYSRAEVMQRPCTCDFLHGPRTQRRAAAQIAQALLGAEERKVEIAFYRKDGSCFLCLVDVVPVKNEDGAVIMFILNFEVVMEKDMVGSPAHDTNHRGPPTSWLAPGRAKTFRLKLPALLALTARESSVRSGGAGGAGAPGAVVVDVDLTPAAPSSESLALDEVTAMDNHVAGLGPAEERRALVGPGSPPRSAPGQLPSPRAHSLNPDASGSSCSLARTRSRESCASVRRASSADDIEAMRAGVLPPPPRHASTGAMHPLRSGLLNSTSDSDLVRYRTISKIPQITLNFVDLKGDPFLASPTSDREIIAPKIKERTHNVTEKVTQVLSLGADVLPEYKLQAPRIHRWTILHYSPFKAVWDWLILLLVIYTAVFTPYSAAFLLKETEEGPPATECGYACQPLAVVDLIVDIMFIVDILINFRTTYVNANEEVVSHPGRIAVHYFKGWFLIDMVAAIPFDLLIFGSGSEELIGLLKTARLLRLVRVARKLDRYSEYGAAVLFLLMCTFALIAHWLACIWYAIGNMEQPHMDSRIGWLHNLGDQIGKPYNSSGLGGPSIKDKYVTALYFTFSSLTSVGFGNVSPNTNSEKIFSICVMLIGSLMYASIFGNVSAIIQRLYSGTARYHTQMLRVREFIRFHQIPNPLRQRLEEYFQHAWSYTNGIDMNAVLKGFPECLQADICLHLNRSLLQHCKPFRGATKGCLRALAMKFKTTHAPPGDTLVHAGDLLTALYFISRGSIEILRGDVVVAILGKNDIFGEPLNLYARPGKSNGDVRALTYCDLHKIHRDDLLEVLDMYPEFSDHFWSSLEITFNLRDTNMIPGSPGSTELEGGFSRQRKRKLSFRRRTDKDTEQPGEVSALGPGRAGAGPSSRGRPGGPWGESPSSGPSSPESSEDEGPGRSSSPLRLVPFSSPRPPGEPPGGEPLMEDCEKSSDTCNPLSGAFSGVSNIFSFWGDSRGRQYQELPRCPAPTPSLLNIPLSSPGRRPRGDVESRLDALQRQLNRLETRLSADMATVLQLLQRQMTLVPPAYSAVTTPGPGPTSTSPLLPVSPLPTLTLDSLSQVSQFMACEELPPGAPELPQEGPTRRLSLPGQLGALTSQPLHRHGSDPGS

Row | Compound | hERG current change (%, negative = inhibition) at 1uM [%]
1 | O=[N+]([O-])c1ccc(F)c(N=Cc2ccc(Br)s2)c1 | 7.42
2 | Cc1cc(C(=O)N2CCC(CO)(Cc3cccc(C(F)(F)F)c3)CC2)n[nH]1 | 1.67
3 | CCN1CCN(CCCN(Cc2ccco2)C(=S)Nc2ccccc2Cl)CC1 | -0.264
4 | CC(=O)OC[C@H]1O[C@@H](n2ncc(=O)[nH]c2=O)[C@H](OC(C)=O)[C@@H]1OC(C)=O | 19.3
5 | CN(CC(=O)Nc1ccccc1Cl)C(=O)CN1C(=O)NC(c2ccccc2)(c2ccccc2)C1=O | -45.8
6 | CCN(CC)CCNC(=O)c1ccccc1N | 0.537
7 | O=C(NCc1ccncc1)c1cc(F)c(F)cc1Cl | 15
8 | O=C(CSc1nc2c(c(=O)n1-c1ccc(Br)cc1)SCC2)NCc1ccco1 | 6.54
9 | COc1ccc(C)cc1NC(=O)C(Sc1nnc(-c2cccs2)o1)c1ccccc1 (stereo not drawn) | 0.023
10 | O=c1ccc2cc3c(-c4ccccc4)coc3cc2o1 | 13.6
11 | CC/C(=N\N1CCCCCC1)c1c(O)n(-c2ccc(C)cc2)c(=O)[nH]c1=O | 11.4
12 | COc1cc(C2C(C#N)=C(N)OC3=C2C(=O)CCC3)cc2c1OCO2 (stereo not drawn) | 9.06
13 | O=[N+]([O-])c1cc(/C=N\O)ccc1Oc1ccc(F)cc1 | -46.3
14 | COc1ccc(-c2csc(NC(=O)C3CSC4(C)CCC(=O)N34)n2)c(OC)c1 (stereo not drawn) | 12.9
15 | Cc1cccc(-n2nc3c(c2NC(=O)c2ccc4c(c2)OCO4)CS(=O)(=O)C3)c1C | 21.2
16 | O=C(COc1ccc(NS(=O)(=O)c2ccc(F)cc2)cc1)N1CCOCC1 | 8.73
17 | Cc1cc(C)n(CC(C)C(=O)O)n1 (stereo not drawn) | 12.1
18 | Cc1nc2nc(CCNS(=O)(=O)c3ccc(Cl)cc3)cn2nc1C | 11
19 | CCCCc1cc(=O)oc2c(C)c(OCc3nn[nH]n3)ccc12 | 7.04
20 | Cc1ccc(S(=O)(=O)Nc2ccc3c(c2)OCCO3)cc1C | 15
21 | CN(CC(=O)NNC(=O)CNC(=O)c1ccccc1F)S(=O)(=O)c1ccc(Cl)cc1 | 6.42
22 | Cc1cc(=O)n2nc(N3CCCC(C(=O)NCc4ccccc4Cl)C3)sc2n1 (stereo not drawn) | 23.5

Row | Compound | hERG current change (%, negative = inhibition) at 1uM [%]
23 | Cc1ccc(N2C(=O)CC(Sc3nc(C)cc(C)n3)C2=O)cc1 (stereo not drawn) | 11
24 | CCOc1cc(Cl)c(CNCCCN2CCOCC2)cc1OC | 16.4
25 | COc1ccc(S(=O)(=O)Nc2ccccn2)cc1OC | 11.7
26 | O=C(CNC1CCCCC1)Nc1ccc(Cl)cc1 | 5.9
27 | COc1ccc(-n2c(Cc3cccn3C)nnc2SCC(=O)NC2CCCCC2)cc1 | 6.77
28 | COC(=O)c1ccc(CNC(=O)C2CCC(=O)N(Cc3ccccn3)C2)cc1 (stereo not drawn) | 15.2
29 | OCCC1CN(Cc2cnc(-c3ccc(Cl)cc3)nc2)CCN1C1CCCC1 (stereo not drawn) | -62
30 | Cc1cccc(NC(=O)C2CCN(c3ncnc4c3nc3n4CCCCC3)CC2)n1 | -13.2
31 | Cc1ccccc1C(=O)Nc1nc2n(n1)C(c1ccccc1)CC(=O)N2 (stereo not drawn) | -8.66
32 | Cc1ccc(C)c(N2CCN(CC3CCCCC3)CC2)c1 | 13.1
33 | CCOc1ccc(CCNC(=O)C2CC(=O)N(Cc3ccc(C)cc3)C2)cc1OCC (stereo not drawn) | 18.5
34 | O=C(NCc1ccco1)C(=O)NCC(c1ccco1)N1CCOCC1 (stereo not drawn) | 13.9
35 | O=C(Nc1ccc(N2CCOCC2)c(Cl)c1)c1cc(F)c(F)cc1Cl | 5.44
36 | O=C(O)CC1(CC(=O)Nc2ccccc2N2CCOCC2)CCCC1 | 3.72
37 | CCOc1ccccc1NC(=O)CSc1nnc(-c2ccncc2)o1 | 8.26
38 | COc1ccc(C)cc1N(C(=O)Cn1nnc(-c2ccc(C)o2)n1)C(C(=O)NC1CCCC1)c1ccncc1 (stereo not drawn) | 11.8
39 | Cc1ccccc1CNC(=O)CN1C(=O)c2ccccc2S1(=O)=O | 16.7
40 | N#Cc1ccc(C(=O)Nc2cc(-c3ccccc3)nn2-c2ccccc2)cc1 | 0.56
41 | CCN(CC(=O)Nc1ccc2c(c1)OCCO2)S(=O)(=O)c1cccs1 | 2.41
42 | CC(=O)NC1(C(F)(F)F)C(=O)N(Cc2ccccc2)C2=C1C(=O)CC(C)(C)C2 (stereo not drawn) | 22.7
43 | Cc1cc(C)n2nc(SCn3nnc4ccccc4c3=O)nc2n1 | 11.3
44 | CCC(=O)Nc1nnc(SCC(=O)Nc2ccc3c(c2)OCO3)s1 | 10.9

Row | Compound | hERG current change (%, negative = inhibition) at 1uM [%]
45 | CC(C)OP(=O)(OC(C)C)C(Nc1ccccc1)c1cccnc1 (stereo not drawn) | 12.6
46 | O=C(CN1CCCCCC1)Nc1ccc(Br)cn1 | 3.88
47 | CCOP(=O)(C#Cc1ccccc1)C(O)c1ccc(Br)cc1 (stereo not drawn) | 10.4
48 | COc1ccc(/C=C2/N=C3CCCCCN3C2=O)cc1 | 10.5
49 | CC1CCCCN1CCCNc1ccc(C(CC(N)=O)NC(=O)Cc2cccc3ccccc23)cc1[N+](=O)[O-] (stereo not drawn) | -14.8
50 | O=C(/C=C/c1ccc(Br)o1)Nc1nccs1 | 2.7
51 | CC(=O)CCC(=O)N1CCC(n2nccc2NC(=O)c2ccccc2C)CC1 | 15.9
52 | COc1ccc(C[C@H]2CN3C(=NC[C@@H]3Cc3ccccc3)N2CCNC(=O)CCC2CCCCC2)cc1 | -60.4
53 | COc1ccc([N+](=O)[O-])cc1N(CC(=O)NCc1ccco1)S(C)(=O)=O | 12.8
54 | Cc1cc(C)c(CNC(=O)c2cc(C3CC3)nc3c2cnn3C(C)C)c(=O)[nH]1 | 6.26
55 | CN(Cc1ccccc1)C(=O)COC(=O)c1ccc(=O)n(Cc2ccccc2)n1 | 3.74
56 | COc1ccc(C(CCNCc2ccc(OC(C)C)cc2)C(C)C)cc1 (stereo not drawn) | 2.88
57 | O=C(/C=C\c1ccco1)Nc1cc([N+](=O)[O-])ccc1F | 2.32
58 | COc1ccccc1OC1OC2COC(c3ccco3)OC2C(O)C1NC(C)=O (stereo not drawn) | 2.9
59 | O=C(Nc1ccc(C2CCCCC2)cc1)C1CCCN(c2ncccn2)C1 (stereo not drawn) | -11.5
60 | C=C1CC2C=C(NC(C)=O)CC(C1)C2 (stereo not drawn) | 1.27
61 | Cc1cccc(NC(=O)[C@H](Cc2ccccc2)NC(=O)OCc2ccccc2)c1 | 13.7
62 | Cc1cccc(N(CC(=O)NCc2ccc(F)cc2)C(=O)c2ccco2)c1 | 10.6
63 | N#Cc1ccc(C(c2nnnn2C2CCCC2)N2CCC(Cc3ccccc3)CC2)cc1 (stereo not drawn) | 15.1
64 | CN(C)S(=O)(=O)c1cccc(NC(=O)c2c[nH]c3ccccc23)c1 | 27
65 | N#CCCN(C(=O)COC(=O)C1CCN(c2ccc(C(F)(F)F)cn2)CC1)c1ccc(F)cc1 | -8.24
66 | CC(=O)c1c(C)[nH]c(C(=O)Nc2cccc(C(F)(F)F)c2)c1C | 15.6

Row | Compound | hERG current change (%, negative = inhibition) at 1uM [%]
67 | CC(C)CCNC(=O)c1cccnc1Sc1ccccc1 | 10.6
68 | COc1ccccc1NC(=O)Cn1nnc(-c2ccccc2NC(=O)c2cccs2)n1 | 1.21
69 | Cc1nc2cc(C(F)(F)F)ccc2n1CCNc1nc(-c2ccc(F)cc2)cs1 | 8.78
70 | COc1ccc(-c2[nH]ncc2/C=N\NS(=O)(=O)c2ccccc2)cc1OC | 11.4
71 | COc1ccccc1NC(=O)c1ccc(NS(=O)(=O)c2ccc(F)c(Cl)c2)cc1 | 13.8
72 | O=C(Nc1cccc(F)c1)NC1(C(=O)NCC2CCCO2)CCCCC1 (stereo not drawn) | 13.3
73 | O=C(Nc1cc(Cl)ccc1O)c1cc2n(n1)C(C(F)(F)F)CC(c1ccc3c(c1)OCO3)N2 (stereo not drawn) | -5.28
74 | O=C(CCC(=O)c1ccc(Oc2ccccc2)cc1)Nc1ccc(Cl)cc1Cl | 11.4
75 | CC1(c2ccc(Cl)cc2)NC(=O)N(CC(=O)NC(=O)NCc2ccco2)C1=O (stereo not drawn) | 12.3
76 | S=C(CN1CCCC1=S)NCCc1ccccc1 | 15.3
77 | NC(=O)CSc1nnc(-c2cccs2)n1Cc1ccco1 | 7.15
78 | O=C(CC(NCCc1ccccc1)C(=O)O)Nc1ccc(O)cc1 (stereo not drawn) | 7.85
79 | CC(C)C[C@H](NC(=O)c1[nH]cnc1C(=O)Nc1ccc(CNC(=O)OC(C)(C)C)cc1)C(=O)OC(C)(C)C | 16.2
80 | COc1cc2c(C#N)c(N3CCOCC3)nc(N)c2c(N)n1 | 3.76
81 | COCC(CN1CCN(C2=NS(=O)(=O)c3ccccc32)CC1)OC(=O)c1ccccc1 (stereo not drawn) | 2.63
82 | Cc1c(C(=O)N2CCCC2)oc2ccc(Br)cc12 | 18
83 | CC1CCCCC1NC(=O)CSc1nnc(COc2ccccc2Cl)o1 (stereo not drawn) | 9.89
84 | C/C(CC(=O)Nc1ccccc1[N+](=O)[O-])=N\NC(=O)COc1ccccc1C | 9.65
85 | CCn1c(=N)c(S(=O)(=O)c2ccc(F)cc2)cc2c(=O)n3ccccc3nc21 | 2.31
86 | CC(C)(C)c1ccc(C(=O)C2CCCN(C3CCC3)C2)cc1 (stereo not drawn) | 10.7
87 | CN(C(=O)CSc1nnc(CNC(=O)c2ccccc2)o1)c1ccccc1 | 1.84
